These results are taken from PubChem BioAssay (NCI).

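Step 1: Grow cells in 96-well plates. Step 2: Expose to compound for 48 hours at 5 concentrations. Step 3: Interpolate endpoints linearly; if unreached, use highest concentration. GI50 marks 50% less growth.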 For part of its entries the source gives two or more results. They are shown here; other results are not. The source may hold further records. For part of these data: The tests behind the records often covered other concentration ranges, which the source does not state; a value can be the end of its range. For part of these data: Values given together are repeats across runs, samples, wells, individuals or studies. What stands in brackets tells the records apart. A, B and so on number the origins entry by entry.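 TGI: concentration producing complete growth inhibition.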 Where a SMILES comes first, the peptide text is derived from it. The star is where a group is joined. Boc = CC(C)(C)OC(=O)*; OBn = c1ccc(CO*)cc1

Among the test systems are IGROV1 ovarian; 786-0 renal; HCT-116 colon; HOP-18 NSCLC; UO-31 renal; SNB-19 CNS; CAKI-1 renal; RPMI-8226 leukemia; SN12C renal; HCT-15 colon; HL-60(TB) leukemia; BT-549 breast; SNB-75 CNS; SR leukemia; TK-10 renal.
Holding throughout (assay): NCI tumour cell line growth inhibition, 48 h

As for `CCCC(=O)Nc1ncnc2c1ncn2C1OC2COP(=O)(O)OC2C1OC(=O)CCC` (stereo not given), in the test with IGROV1 ovarian, the TGI was 53.1 µM and > 1 mM.
Regarding `C/C=C1\C[C@@H]2C(OC)Nc3cc(O)c(OC)cc3C(=O)N2C1` (stereo not given in full), the TGI in the test on 786-0 renal was 624 nM and 8.92 µM; in the test with HCT-116 colon it was 473 nM and 5.05 µM; in the test on HOP-18 NSCLC, 313 nM and < 24.1 nM; in the test with UO-31 renal, 5.78 nM and 78.5 nM; in the test with SNB-19 CNS, 396 nM and 4.17 µM; in the test on CAKI-1 renal, 267 nM and > 37.8 µM. The TGI in the test with RPMI-8226 leukemia was 512 nM and < 12.9 nM; with SN12C renal it was 360 nM and 6.53 µM; in the test on HCT-15 colon it was 823 nM and 11.1 µM.
Regarding `COc1cc(C(=O)Nc2cc(O)c(C/C=C(\C)CCC=C(C)C)c(O)c2)cc2c1O[C@]1(C)CC[C@@H](O)C(C)(C)[C@H]1C2`, the TGI in the test with HL-60(TB) leukemia is 1.85 µM and > 100 µM. Also, the GI50 with BT-549 breast was 8.86 nM [1 test] and 216 nM [mean of 2 tests].
On to `Nc1ccn(CC(CO)CC(c2ccccc2)P(=O)(O)O)c(=O)n1` (stereo not given), for which the GI50 with SNB-75 CNS was 1.73 µM [sample A, 1 test] and > 100 µM [sample B, 1 test]; in the test on SR leukemia, > 100 µM [sample A, 1 test] and 4.6 µM [sample B, 1 test].
For the compound `CC(C)C(NC(=O)CNC(=O)C1CCCN1C(=O)C(NC(=O)OC(C)(C)C)C(C)C)C(=O)NCC(=O)OCc1ccccc1` (stereo not given) (Boc-VPGVG-OBn; configuration not given here), the GI50 in the test on TK-10 renal is > 100 µM [sample A, 1 test] and 200 nM [sample B, 1 test].
